{"source": "the supplement of paper PMC10441789", "note": "The list shows a part of the results. Antibody binding of pooled human sera (four to six donors per pool; dilution not stated) to peptides of the Trypanosoma cruzi antigen TSSA on microarrays. Quantile-normalised fluorescence in arbitrary units, mean of duplicate arrays; higher = more binding. No active / inactive call. The uninfected pools are read here as the healthy donors of the same country. The strongest signals lie near the top of the scale (about 60,000)."}
{"tested_on": "pooled sera of uninfected people, Colombia", "assay": "antibody binding signal (normalised fluorescence) (arbitrary fluorescence units); higher = stronger serum antibody binding to peptide", "procedure": "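Microarray of 15-residue peptides over residues 30-55 of Trypanosoma cruzi TSSAII, each with 1 to 10 substitutions at naturally variable positions, probed with one serum pool per country.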"}
{"sequence": "KDNKPAAGEAPSQSG", "antibody binding signal": 247}
{"sequence": "SGKDKKTATGGAPSP", "antibody binding signal": 138}
{"sequence": "TDNKPAAGGAPSPPG", "antibody binding signal": 224}
{"sequence": "GTENKTAAGETPSPP", "antibody binding signal": 246}
{"sequence": "KDNKAAAGETPSPSG", "antibody binding signal": 173}
{"sequence": "NKAATGEAPSPPGAS", "antibody binding signal": 661}
{"sequence": "SGTENKPAAGETPSQ", "antibody binding signal": 234}
{"sequence": "KPAAGETPSPSGASS", "antibody binding signal": 145}
{"sequence": "TEKKTATGGAPSPPG", "antibody binding signal": 168}
{"sequence": "STPPSGKEKKAATGE", "antibody binding signal": 459}
{"sequence": "TENKPATGGTPSQSG", "antibody binding signal": 265}
{"sequence": "TPPSGTEKKTAAGEA", "antibody binding signal": 153}
{"sequence": "DNKAAAGGAPSPSGA", "antibody binding signal": 292}
{"sequence": "TPPSGTDNKTAAGEA", "antibody binding signal": 244}
{"sequence": "DNKTATGEAPSQPGA", "antibody binding signal": 159}
{"sequence": "PPSGTEKKPATGGTP", "antibody binding signal": 305}
{"sequence": "GTDNKTATGEAPSPP", "antibody binding signal": 131}
{"sequence": "PPSGKDNKAAAGGTP", "antibody binding signal": 286}
{"sequence": "GKEKKPAAGEAPSPP", "antibody binding signal": 92}
{"sequence": "ENKAAAGETPSQPGA", "antibody binding signal": 289}
{"sequence": "KDNKPATGGAPSQSG", "antibody binding signal": 236}
{"sequence": "NKTAAGGAPSQPGAS", "antibody binding signal": 370}
{"sequence": "KTATGEAPSQSGASS", "antibody binding signal": 163}
{"sequence": "GKDKKTAAGETPSQS", "antibody binding signal": 156}
{"sequence": "PPSGTEKKPAAGETP", "antibody binding signal": 848}
{"sequence": "TDNKAAAGGAPSQSG", "antibody binding signal": 249}
{"sequence": "KEKKPATGGTPSQSG", "antibody binding signal": 97.7}
{"sequence": "KTATGEAPSPPGASS", "antibody binding signal": 153}
{"sequence": "KTAAGEAPSPPGASS", "antibody binding signal": 128}
{"sequence": "SSTPPSGTEKKPAAG", "antibody binding signal": 224}
{"sequence": "SGKENKAATGEAPSP", "antibody binding signal": 608}
{"sequence": "SGTDNKAATGGAPSQ", "antibody binding signal": 216}
{"sequence": "GTENKTATGETPSQP", "antibody binding signal": 172}
{"sequence": "GKDKKAAAGEAPSQS", "antibody binding signal": 100}
{"sequence": "TPPSGTDKKAAAGGT", "antibody binding signal": 213}
{"sequence": "TEKKTATGGAPSQSG", "antibody binding signal": 126}
{"sequence": "TPPSGKENKPATGEA", "antibody binding signal": 755}
{"sequence": "SGKDKKAAAGGAPSP", "antibody binding signal": 137}
{"sequence": "SGTENKPAAGGAPSQ", "antibody binding signal": 262}
{"sequence": "SGTEKKPAAGETPSQ", "antibody binding signal": 793}
